We go through 29 compounds from PubChem BioAssay AID1745853 (National Center for Advancing Translational Sciences (NCATS), 2022).

The other results are listed elsewhere or left out. The main result of the screen is listed elsewhere. These columns were measured beside it and carry no call.

Assay in all cases: Primary Screen for Target Class Profiling of Small Molecule Inhibitors of Methyltransferases
The target of assay [1] is Glycine N-methyltransferase (Homo sapiens) (UniProt Q14749). To be noted: purified enzyme, MTase-Glo SAH luminescence; measured here: GNMT inhibition; at 40 µM; stronger effect = lower value. The procedure, abridged:
(§1)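 Each enzyme was assayed with SAM and its substrate. SAH formation detected by MTase-Glo luminescence; single-point 40 uM screen[…].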

The target in assay [2] is Guanidinoacetate N-methyltransferase (Homo sapiens) (UniProt Q14353). The settings on record: purified enzyme, MTase-Glo SAH luminescence; measured here: GAMT inhibition; at 40 µM; stronger effect = lower value. The procedure, abridged: as §1
Assay [3] deals with Histamine N-methyltransferase (Homo sapiens) (UniProt P50135). To be noted: purified enzyme, MTase-Glo SAH luminescence; measured here: HNMT inhibition; at 40 µM; stronger effect = lower value. In short, it runs like this:
as §1

Assay [4] has as its target Nicotinamide N-methyltransferase (Homo sapiens) (UniProt P40261). To be noted: purified enzyme, MTase-Glo SAH luminescence; measured here: NNMT inhibition; at 40 µM; stronger effect = lower value. The procedure, abridged: as §1
The target of assay [5] is Phenylethanolamine N-methyltransferase (Homo sapiens) (UniProt P11086). To be noted: purified enzyme, MTase-Glo SAH luminescence; measured here: PNMT inhibition; at 40 µM; stronger effect = lower value. The procedure, abridged:
as §1
% is set by controls: 0 for no effect and ±100 for the full control effect.

On to `Cc1ccc(Cl)cc1NC(=O)CSc1nnc2n(CCC(C)C)c(=O)c3ccccc3n12`, for which the activity change, negative = inhibition in assay [1] was -0.551%; in assay [2], 0%; in assay [3], 9.39%; in assay [4] it was -8.2%; in assay [5] it was 2.7%.

On to `CCCCC1CCN(CCCN2C(=O)CCc3ccccc32)CC1`, for which the activity change, negative = inhibition in assay [1] was -0.995%; in assay [2], -6.34%; in assay [3], -12.8%; in assay [4] it was -15.6%; in assay [5], -18.2%.

Turning to `CCOCCCNc1nc2c(S(=O)(=O)c3cc(C)ccc3C)nnn2c2ccccc12`, the activity change, negative = inhibition in assay [1] is -5.2%; in assay [2], 4.37%; in assay [3] it was 4.05%; in assay [4], -4.15%; in assay [5] it was -2.01%.

For `COCCN(C(=O)c1cc(OC)c(OC)c(OC)c1)c1nc(-c2ccccc2)cs1`, the activity change, negative = inhibition in assay [1] was 2.81%; in assay [2] it was 4.56%; in assay [3] it was 13.8%; in assay [4] it was -13.2%; in assay [5] it was 0.376%.

Take `CC(C)c1cc2n(n1)CC(C)(C(=O)NC1CCCCCC1)N(Cc1ccccc1Cl)C2=O` (configuration not stated): the activity change, negative = inhibition in assay [1] is -0.534%; in assay [2], 0%; in assay [3] it was 2.8%; in assay [4], 4.82%; in assay [5], -1.1%.

For the compound `COc1ccccc1-c1ccc(CN2CCCC(c3nc4ccc(C)cc4c(=O)[nH]3)C2)cc1` (configuration not stated), the activity change, negative = inhibition in assay [1] was -7.92%; in assay [2], -8.1%; in assay [3], -14%; in assay [4] it was -20.7%; in assay [5] it was -4.28%.

`O=C(Cn1ccc2cc(S(=O)(=O)N3CCCCC3)ccc21)NCCc1c[nH]c2ccccc12`: the activity change, negative = inhibition in assay [1] was 7.42%; in assay [2], 4.54%; in assay [3], -11.5%; in assay [4] it was 2.14%; in assay [5] it was 1.58%.

Take `Cc1ccc(NC(=O)N2CCn3c(C)ccc3C2C(C)C)cc1F` (configuration not stated): the activity change, negative = inhibition in assay [1] was 11%; in assay [2] it was 0%; in assay [3], 5.67%; in assay [4], -1.63%; in assay [5] it was 1.84%.

As for `CCOC(=O)C1CCN(c2nc3c(S(=O)(=O)c4ccc(C(C)C)cc4)nnn3c3ccccc23)CC1`, the activity change, negative = inhibition in assay [1] is 2.15%; in assay [2], 0%; in assay [3], 6.71%; in assay [4], 4.26%; in assay [5] it was -0.811%.

In the case of `CC1(C(=O)NC2CCCCCC2)Cn2nc(-c3ccco3)cc2C(=O)N1c1cccc(F)c1` (configuration not stated), the activity change, negative = inhibition in assay [1] stood at 3.1%; in assay [2], 4.78%; in assay [3] it was 5.26%; in assay [4], 2.07%; in assay [5] it was 1.09%.

As for `CCCCCCCCCCCCCCCCCCOC[C@H](COP(=O)([O-])OCC[N+](C)(C)C)OC`, the activity change, negative = inhibition in assay [1] was 2.85%; in assay [2], 15.5%; in assay [3], 9.11%; in assay [4], -14%; in assay [5], 2.93%.

As for `CCN(CC)CCCNC(=O)c1cc2n(n1)CC(C)(C(=O)NC1CCCCCC1)N(C)C2=O` (configuration not stated), the activity change, negative = inhibition in assay [1] came to 4.32%; in assay [2], 0.088%; in assay [3] it was 3.34%; in assay [4] it was 7.71%; in assay [5] it was 2.84%.

`COC(=O)C1=C(C)NC(C)=C(C(=O)OC)C1c1ccccc1[N+](=O)[O-]`: the activity change, negative = inhibition in assay [1] was -31.2%; in assay [2], 10.9%; in assay [3], 6.18%; in assay [4] it was -4.25%; in assay [5], 3.17%.

For the compound `COc1cccc(N2C(=O)NC(=NC3CCCC3)C23CCCN(Cc2cccn2C)C3)c1` (configuration not stated), the activity change, negative = inhibition in assay [1] was -15.5%; in assay [2], -11.4%; in assay [3] it was -8.06%; in assay [4], -25%; in assay [5], -1.98%.

For `O=C(Nc1cccc2cccnc12)c1ccc(N2C(=O)[C@@H]3C4C=CC(C4)[C@@H]3C2=O)cc1`, the activity change, negative = inhibition was -5.92% in assay [1]; -8.34% in assay [2]; 5.76% in assay [3]; -16.4% in assay [4]; -2.49% in assay [5].

Turning to `NC(=O)c1cccc2[nH]c(-c3ccc(C4CCCN4)cc3F)nc12` (configuration not stated), the activity change, negative = inhibition in assay [1] is -12.9%; in assay [3], -69%.

With `CC1(C)CC[C@]2(C(=O)O[C@@H]3O[C@H](CO)[C@@H](O)[C@H](O)[C@H]3O)CC[C@]3(C)C(=CCC4[C@@]5(C)C[C@H](O)[C@H](O[C@@H]6O[C@H](C(=O)O)[C@@H](O)[C@H](O)[C@H]6O)[C@@](C)(CO)C5CC[C@]43C)C2C1` (some centres not stated), the activity change, negative = inhibition is -3.57% in assay [1]; -10.4% in assay [2]; 7.22% in assay [3]; -22.3% in assay [4]; -0.269% in assay [5].

With `CC(C)CCN1C(=O)c2nc3ccccc3n2CC1(C)C(=O)NC1CCCC(C)C1C` (configuration not stated), the activity change, negative = inhibition in assay [1] is 8.38%; in assay [2], 1.85%; in assay [3], 10.3%; in assay [4] it was 14.3%; in assay [5], 5.25%.

Take `COCCN1Cc2sccc2N(CC(O)COc2ccc(OC)cc2)CCC1=O` (configuration not stated): the activity change, negative = inhibition is -15.5% in assay [1]; -7.37% in assay [2]; -2.76% in assay [3]; -9.13% in assay [4]; -12.3% in assay [5].

`O=C(NCc1ccc(F)cc1)N1CCCC(Cc2noc(-c3cccnc3)n2)C1` (configuration not stated): the activity change, negative = inhibition in assay [1] was -4.38%; in assay [2] it was -9.99%; in assay [3], -4.39%; in assay [4] it was -1.15%; in assay [5], -7.36%.

For `CC(C)C1c2cccn2-c2sc3c(c2CN1C(=O)NCc1ccccc1)CCCC3` (configuration not stated), the activity change, negative = inhibition in assay [1] was -5.74%; in assay [2], -4.42%; in assay [3], -3.72%; in assay [4] it was -13.3%; in assay [5], -6.06%.

For `Nc1nccc(-c2c(-c3ccc(F)cc3)ncn2C2CCCCC2)n1`, the activity change, negative = inhibition was -1.68% in assay [1]; -1.31% in assay [2]; -0.472% in assay [3]; -24.6% in assay [4]; -5.66% in assay [5].

Take `O=C([C@H]1C[C@H](Oc2cccnc2)CN1C(=O)c1ccc2ccccc2n1)N1CCOCC1`: the activity change, negative = inhibition in assay [1] was -3.62%; in assay [2] it was -9.77%; in assay [3], -2.51%; in assay [4], -10.8%; in assay [5], -6.98%.

Turning to `COc1ccc(OC)c(-c2ccc(NC(=O)c3ccncc3F)cc2)c1`, the activity change, negative = inhibition in assay [1] was -0.077%; in assay [2] it was -13.2%; in assay [3], 11.4%; in assay [4], -24.8%; in assay [5], -5.73%.

On to `O=C(Nc1cc(-c2ccccc2)nn1-c1ccccc1)c1ccc([N+](=O)[O-])cc1`, for which the activity change, negative = inhibition is 7% in assay [1]; -3.19% in assay [2]; 6.98% in assay [3]; -16.7% in assay [4]; -4.06% in assay [5].

Take `Cc1ccc(NC(=O)Cn2c(=O)oc3cc(S(=O)(=O)NCc4ccccc4)ccc32)cc1`: the activity change, negative = inhibition in assay [1] was -6.41%; in assay [2] it was 0.044%; in assay [3], 6.07%; in assay [4] it was -2.17%; in assay [5], -0.231%.

With `O=C(Nc1c(-c2cccs2)nc2ccccn12)c1ccc(Cl)cc1`, the activity change, negative = inhibition was -15.6% in assay [1]; -0.572% in assay [2]; 6.79% in assay [3]; -34.3% in assay [4]; 1.18% in assay [5].

Consider `CCCCN1C(=O)c2cc(C(=O)Nc3cccc(C)c3C)nn2CC1(C)C(=O)NC1CCCC1` (configuration not stated), for which the activity change, negative = inhibition in assay [1] is 2.33%; in assay [2], 0.34%; in assay [3], 3.98%; in assay [4] it was -0.785%; in assay [5] it was 4.25%.

Turning to `COc1ccccc1C(=O)Nc1ccc2c(c1)C(=O)N(C)C1=NCCN12`, the activity change, negative = inhibition in assay [1] is -4.54%; in assay [2], -1.29%; in assay [3], -13%; in assay [4], -2.64%; in assay [5] it was -3.8%.
